For one assay, the system named is HSkMC. Kind of assay: cytotoxicity call (relative viability < 0.9). The following applies: 10 µM.
The subject of another assay is HepG2. Kind of assay: cytotoxicity call (relative viability < 0.9). Particulars: 10 µM.
For another assay, the system named is S. aureus RN4220. The experiment in a line: growth inhibition call (relative growth <= 0.2). The following applies: 50 µM.

SMILES strings stand for the structures. The list shows a part of the results.

`C[C@@H]1CCCCO[C@@H](CN(C)C(=O)Nc2ccc(F)cc2)[C@H](C)CN([C@@H](C)CO)C(=O)c2cc(NS(=O)(=O)c3cccs3)ccc2O1`: the cytotoxicity call in the assay with HSkMC and in the assay with HepG2 was “inactive” throughout. Moreover, the growth inhibition call in the assay on S. aureus RN4220 was “inactive”.

With `C[C@@H]1CN([C@H](C)CO)C(=O)c2cc(NS(=O)(=O)c3cccs3)ccc2O[C@@H]1CN(C)Cc1ccc(-c2ccccc2)cc1`, the cytotoxicity call in the assay with HSkMC and in the assay with HepG2 was “active” in each case. For the same compound, in the assay on S. aureus RN4220, the growth inhibition call is “inactive”.

Consider `C[C@H](CO)N1C[C@H](C)[C@H](CN(C)Cc2ccc(-c3ccccc3)cc2)Oc2c(NC(=O)C3CCCCC3)cccc2C1=O`, for which the cytotoxicity call in the assay on HSkMC and in the assay on HepG2 was “inactive” throughout. Moreover, in the assay with S. aureus RN4220, the growth inhibition call is “inactive”.

Turning to `Cc1ccc(S(=O)(=O)N(C)C[C@@H]2Oc3ccc(NS(=O)(=O)c4c(C)noc4C)cc3C(=O)N([C@@H](C)CO)C[C@@H]2C)cc1`, the cytotoxicity call in the assay on HSkMC and in the assay with HepG2 was “inactive” throughout. The growth inhibition call in the assay on S. aureus RN4220 is “inactive”.

Take `COC1=C(CC=C(C)C)C(=O)c2ccccc2C1=O`: the cytotoxicity call with HSkMC is “inactive”. Also, the cytotoxicity call in the assay with HepG2 is “active”. In addition, the growth inhibition call with S. aureus RN4220 is “inactive”.

On to `C[C@H](CO)N1C[C@H](C)[C@@H](CN(C)S(=O)(=O)c2cn(C)cn2)Oc2c(NC(=O)C3CC3)cccc2C1=O`, for which the cytotoxicity call in the assay with HSkMC and in the assay with HepG2 was “inactive” in each case. Also, the growth inhibition call with S. aureus RN4220 was “inactive”.

With `C[C@@H]1CN([C@H](C)CO)C(=O)c2cc(NC(=O)Nc3ccc(C(F)(F)F)cc3)ccc2O[C@@H](C)CCCCO[C@@H]1CN(C)S(=O)(=O)c1ccccc1`, the cytotoxicity call with HSkMC and with HepG2 was “inactive” in each case. Besides, the growth inhibition call in the assay with S. aureus RN4220 was “inactive”.

`CC(C)NC(=O)N[C@H]1C=C[C@@H](CC(=O)NCCCN(C)C)O[C@H]1CO`: the cytotoxicity call in the assay on HSkMC and in the assay on HepG2 was “inactive” throughout. Further, in the assay with S. aureus RN4220, the growth inhibition call was “inactive”.

In the case of `C[C@@H]1CN([C@H](C)CO)C(=O)c2cc(NS(C)(=O)=O)ccc2O[C@@H]1CN(C)S(C)(=O)=O`, the cytotoxicity call with HSkMC and with HepG2 was “inactive” each time. For the same compound, the growth inhibition call in the assay on S. aureus RN4220 was “inactive”.

On to `O=C(Nc1ccc(Cl)cc1)Nc1ccc(Cl)c(Cl)c1`, for which the cytotoxicity call with HSkMC and in the assay on HepG2 was “active” throughout. For the same compound, the growth inhibition call with S. aureus RN4220 was “active”.

Consider `C[C@H]1CCCCO[C@@H](CN(C)Cc2ccc(C(F)(F)F)cc2)[C@@H](C)CN([C@@H](C)CO)C(=O)c2cc(NS(=O)(=O)c3cn(C)cn3)ccc2O1`, for which the cytotoxicity call with HSkMC and in the assay on HepG2 was “inactive” throughout. Also, the growth inhibition call in the assay on S. aureus RN4220 is “inactive”.

For the compound `C[C@H]1CCCCO[C@@H](CN(C)CC2CCCCC2)[C@@H](C)CN([C@@H](C)CO)C(=O)c2cc(NC(=O)c3ccncc3)ccc2O1`, the cytotoxicity call with HSkMC and in the assay on HepG2 was “inactive” each time. Further, in the assay on S. aureus RN4220, the growth inhibition call is “inactive”.

As to `CCS(=O)(=O)Nc1ccc2c(c1)C(=O)N(C)[C@H]1CC[C@@H](CC(=O)N[C@H]3CCN(Cc4ccccc4)C3)O[C@H]1CO2`, the cytotoxicity call in the assay with HSkMC and in the assay with HepG2 was “inactive” each time. Moreover, in the assay on S. aureus RN4220, the growth inhibition call is “inactive”.

Consider `O=C(CN1CCOCC1)N[C@H]1CC[C@@H](CCn2cc(C3CCCC3)nn2)O[C@@H]1CO`, for which the cytotoxicity call in the assay with HSkMC and with HepG2 was “inactive” each time. In the assay with S. aureus RN4220, the growth inhibition call was “inactive”.

`C[C@@H](O)C(=O)O.N`: the cytotoxicity call in the assay with HSkMC and with HepG2 was “inactive” each time. Also, the growth inhibition call in the assay on S. aureus RN4220 is “inactive”.

For the compound `C[C@H](CO)N1C[C@H](C)[C@@H](CN(C)C(=O)Nc2ccc(C(F)(F)F)cc2)Oc2c(NC(=O)C3CCCCC3)cccc2C1=O`, the cytotoxicity call with HSkMC and in the assay with HepG2 was “inactive” in each case. The growth inhibition call in the assay with S. aureus RN4220 was “inactive”.

As to `C[C@H]1CN([C@@H](C)CO)C(=O)c2cc(/C=C/c3ccccc3)cnc2O[C@@H]1CN(C)C(=O)CN1CCOCC1`, the cytotoxicity call in the assay with HSkMC and with HepG2 was “inactive” in each case. The growth inhibition call in the assay on S. aureus RN4220 is “inactive”.

Consider `Cc1cc(N)[nH]n1`, for which the cytotoxicity call with HSkMC and with HepG2 was “inactive” throughout. For the same compound, in the assay with S. aureus RN4220, the growth inhibition call is “inactive”.

On to `CO[C@@H]1CN(C)C(=O)c2cc(NS(=O)(=O)c3ccccc3F)ccc2OC[C@@H](C)N(S(C)(=O)=O)C[C@H]1C`, for which the cytotoxicity call in the assay on HSkMC and in the assay on HepG2 was “inactive” throughout. In addition, the growth inhibition call in the assay on S. aureus RN4220 was “inactive”.

Consider `C[C@@H]1CN([C@H](C)CO)C(=O)c2cc(-c3ccc(C(=O)N(C)C)cc3)cnc2O[C@@H]1CN(C)C(=O)c1ccncc1`, for which the cytotoxicity call with HSkMC and in the assay with HepG2 was “inactive” each time. The growth inhibition call with S. aureus RN4220 is “inactive”.

In the case of `c1ccc(Nc2ncnc3sc(-c4ccccc4)cc23)cc1`, the cytotoxicity call in the assay with HSkMC and in the assay with HepG2 was “inactive” throughout. The growth inhibition call with S. aureus RN4220 is “inactive”.

Take `CC(C)NC(=O)N(C)C[C@@H]1Oc2ccc(NS(=O)(=O)c3cn(C)cn3)cc2CC(=O)N([C@H](C)CO)C[C@@H]1C`: the cytotoxicity call in the assay with HSkMC and with HepG2 was “inactive” throughout. Also, the growth inhibition call with S. aureus RN4220 is “inactive”.

With `C[C@@H]1CN([C@H](C)CO)C(=O)c2cc(NS(C)(=O)=O)ccc2O[C@@H]1CN(C)Cc1ccc(C(=O)O)cc1`, the cytotoxicity call in the assay on HSkMC and with HepG2 was “inactive” throughout. Besides, the growth inhibition call in the assay with S. aureus RN4220 was “inactive”.

Take `O=C(O)C12CC(C1)C2`: the cytotoxicity call in the assay with HSkMC and in the assay on HepG2 was “inactive” in each case. For the same compound, the growth inhibition call in the assay with S. aureus RN4220 was “inactive”.

On to `CN(C)C(=O)CN1CCCN(CCn2nc3ccccn3c2=O)CC1`, for which the cytotoxicity call in the assay on HSkMC and in the assay with HepG2 was “inactive” throughout. Moreover, the growth inhibition call with S. aureus RN4220 is “inactive”.

For `CC(C)NC(=O)Nc1ccc2c(c1)C(=O)N([C@@H](C)CO)C[C@@H](C)[C@@H](CN(C)Cc1ccc(Oc3ccccc3)cc1)O2`, the cytotoxicity call with HSkMC and with HepG2 was “inactive” each time. Moreover, the growth inhibition call with S. aureus RN4220 is “inactive”.

For `COc1cccc2c1C(=O)c1c(O)c3c(c(O)c1C2=O)C[C@](O)(C(=O)CO)C[C@H]3O[C@H]1C[C@@H](N)[C@@H](O)[C@@H](C)O1`, the cytotoxicity call in the assay on HSkMC (human skeletal muscle cells) and in the assay with HepG2 was “active” in each case. In addition, the growth inhibition call with S. aureus RN4220 is “active”.

Regarding `C[C@H](CO)N1C[C@H](C)[C@@H](CN(C)S(=O)(=O)c2cccs2)Oc2ccc(NC(=O)Nc3cccc4ccccc34)cc2CC1=O`, the cytotoxicity call with HSkMC and in the assay with HepG2 was “inactive” throughout. Further, the growth inhibition call in the assay with S. aureus RN4220 is “inactive”.

Values taken from the antibiotic and cytotoxicity screens of Wong et al. (2023).
